This is one part of the list.

Consider 45 sequences from the supplement of paper PMC11417369.

In the assay the test system is PfHDP1 homeodomain (GST-tagged). As to the kind of experiment: gcPBM binding intensity (ln(normalized median fluorescence intensity)); higher = stronger DNA binding. Summed up: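 DNA-binding domains from P. falciparum, fused to GST and produced in E. coli, were put on an Agilent 4 × 180k double-stranded probe array for 1 h in 1× PBS holding 1% milk, 0.2 mg/ml BSA, 0.5% salmon testes DNA and 0.03% Triton X-100. Probes were primer-extended, 36 bp long and drawn from intergenic genomic regions, with negative controls included. After Alexa488 anti-GST antibody detection and a 488 nm scan, binding intensity was set as the highest Masliner-normalised natural-log median intensity across replicate spots of either probe orientation.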
In the case of “AATAATGTTATAAATTGTACGTGTATTATTCATTAC [XGTACX_site894]”, the “gcPBM binding intensity (ln)” value came to 6.39. Next, “TATATTTATCCATACAAGAAAAAAAAAAAAAAAATA [CACACA_negctrl_site1328]”: 6.16; “TACACCCACCCACATACACACACATACACATATATA [CACACA_site8503]”: 7.42. Next, “CCACTTAAAATAAAAAGTACATACAGGTGTTATACA [XGTACX_site8124]”: 6.11; “TCAATATTAAATTATTGTACATGTATGTATATATAT [XGTACX_site3861]”: 7.01. Next, “TTTTTTTTTTTTTTTTTACACACTTTATTCAAACAA [CACACA_site9360]”: 6.44; “ATAAAATATATATATATAAAAATAAATACATAAATA [GTGCAC_negctrl_site157]”: 6.31. Regarding “CAAACAAACAGACACACACACACACCCAAAAATGAT [CACACA_site2430]”, the “gcPBM binding intensity (ln)” value came to 6.79. With “TTTATATAAATTTTTTGTACACAAGTAAAAACGCGT [XGTACX_site2459]”, the “gcPBM binding intensity (ln)” value is 6.64. On to “ACACAAATAAATATAACATATATATTATATTATATT [CACACA_negctrl_site710]”, for which the “gcPBM binding intensity (ln)” value amounted to 6.68. The result for “TATATATATATATATACACACATACAGATATATATT [CACACA_site4629]” reads 9.36. As for “TATATAAGAACTTTTACACACATGAAAATGTAGATA [CACACA_site7711]”, the “gcPBM binding intensity (ln)” value amounted to 6.28. For “TTACTATTATTATTTTTTATTTTTATTTTATTTATT [TGCATGCA_negctrl_site269]”, the “gcPBM binding intensity (ln)” value amounted to 6.45. For “CACTAAAAGAAACACACACACACACCCATATATATA [CACACA_site4151]”, the “gcPBM binding intensity (ln)” value amounted to 6.95. Next, “ATATACACATATACATGTACAAATATATATACACAT [XGTACX_site2986]”: 6.9. The result for “TATTTAAAATAATGTGCAAAAGAATAAATAAATAAA [TGCATGCA_negctrl_site194]” reads 10.3. Next, “TTGTAAGAAAGACACACACACACATATAAATATGTA [CACACA_site6516]”: 6.51; “TTCATTTTCATATATTGTACAAAATTTTATAAGGTT [XGTACX_site4522]”: 6.99. For “TAAAATAAAAAAGTAGTACACACTTCACGATATTTT [CACACA_site3896]”, the “gcPBM binding intensity (ln)” value turned out to be 6.1. Next, “AATATAAAACTTTAGAGTACTTATCATTAAAATATA [XGTACX_site4509]”: 6.1; TTAAAAGTAAGCAAAGTGCATATAACAAAAGTAAAG: 8.67. For the sequence “ATTAATAATGAAAAAAAACACACGGTACATTCAAAG [CACACA_site1302]”, the “gcPBM binding intensity (ln)” value is 6.75. For “GGAACAAATAATATCACACATATATATATATATATA [CACACA_site5670]”, the “gcPBM binding intensity (ln)” value was determined as 9.48. Next, “ATATATTTTATACATACACACATATAAATATTTTTT [CACACA_site7780]”: 6.83; “TACGCAACCAAAAGTTGTACTAATTTTTTTTTTTTG [XGTACX_site7432]”: 6.45. Take “TAATAAATATATTGAAGTACTTATAAAAAGCAATAT [XGTACX_site6262]”: the “gcPBM binding intensity (ln)” value is 7.22. Next, “TATTAAACTTGACACACACACACACGCATATATAAA [CACACA_site6496]”: 7.01; “TACGGGAAAGATAAGAAACACACGGAAAATTAGACG [CACACA_site1661]”: 7.15; “TTTTTTAATACATATGCATGTTCAAGTACGAAAAAA [TGCATGCA_site641]”: 6.35. The result for “ATATATATATATAATACACACTAAAGTAACATAATA [CACACA_site5580]” reads 8.8; that for “TTCATGTCCTATTAATGTACTCTACACACATATAAG [XGTACX_site899]”, 6.76; that for “AAAAAAAAAAAAAAAACACACACATATATATATATA [CACACA_site8571]”, 9.17. For the sequence “TGTATATAATCGAGTGCACACACAAAAAAAAAGTGA [CACACA_site8417]”, the “gcPBM binding intensity (ln)” value was found to be 10.1. As to “TTTATTTATTTTTGTTGTACACTTGTATATATTATT [XGTACX_site6486]”, the “gcPBM binding intensity (ln)” value came out at 6.94. Turning to “ATTTTATATACACTTTGTACTTATTTTATTCTTCTT [XGTACX_site4200]”, the “gcPBM binding intensity (ln)” value was found to be 7.1.

Turning to “TTTAAAAAAAAAAATACACACATAAAAATTTTCAAA [CACACA_site703]”, the “gcPBM binding intensity (ln)” value worked out at 6.43.

As for “ATTATAAGAAGGGGGGGTACATAAATATAAATGTAT [XGTACX_site5624]”, the “gcPBM binding intensity (ln)” value is 8.12. For “TTAATAATTAATTATAGTACACATTTATATTAATAA [XGTACX_site190]”, the “gcPBM binding intensity (ln)” value worked out at 6.34. The result for “TTATTTAAAAAATTTTTAAATATACAAAAAAAAAAA [TGCATGCA_negctrl_site464]” reads 6.24; that for “TTTAATTTTCGGTGTGCACACAACTATGAGTTTTTA [CACACA_site3034]”, 11.2; that for “AAAAAAAAAAAAAAAGCATGCACATATTATTTTTTT [TGCATGCA_site416]”, 7.94. Consider “ATTATATTTTGTAAATGTACATTTATATATTTTGTA [XGTACX_site1226]”, for which the “gcPBM binding intensity (ln)” value turned out to be 6.61. Take “ATTCATAAACGTGTGTTAATATGAATTTAAACATAA [XGTACX_negctrl_site213]”: the “gcPBM binding intensity (ln)” value came to 6.27. Next, “ATATAAATAAAATATACACACATAAATATAACGACA [CACACA_site1637]”: 7; “AACATTTCCTTTCTGTGTACATATAAACCCATCTAT [XGTACX_site2071]”: 7.29.
